Some of the results follow.
T1: UNK ZnF1-3 (human, UniProt Q9C0B0 31-174)
T1 sequence: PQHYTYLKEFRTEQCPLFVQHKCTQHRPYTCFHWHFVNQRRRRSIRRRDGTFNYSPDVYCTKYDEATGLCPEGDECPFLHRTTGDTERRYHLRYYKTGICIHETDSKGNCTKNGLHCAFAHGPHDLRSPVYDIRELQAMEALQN

B1: chr1:163122374:163122375:-_ENSG00000143248_ENST00000313961|hu_mus|FALSE|FALSE (ssRNA)
RNA: GGGAGUUCUACAGUCCGACGAUCAGUGAAGUGGUCAAUGUUCACCUCUUUAGGGGCCUCUGUCUGGAUGAAUUCUUCAUAAAUUUGCUUUGCCUUCUCCGCCAUUUUGAUGGGGGACUUGAUCUUCUUGUAAUUCUCACAGGCCAACAGAGGAUUGAGCAUCA
B2: chr16:67133199:67133200:+_ENSG00000067955_ENST00000412916|hu_hu|FALSE|FALSE (ssRNA)
RNA: GGGAGUUCUACAGUCCGACGAUCAUGCUACUAAGUUUUUAGCCUGUAAAUAAUGCAAACAACAUCAGCAGUUUUAAAAUGCUAUAGACUAUAAAAACACAAAAGGAAAUGGGGCAAACAAAACAAAAAAUAAGAAUGCUCAUCCAACAGAGGAUUGAGCAUCA
B3: chr10:106027121:106027122:+_ENSG00000148834_ENST00000369713|hu_hu|FALSE|FALSE (ssRNA)
RNA: GGGAGUUCUACAGUCCGACGAUCGGCCUCAGGGCUGUUCUGUAAGUAGAGCUCUAGGAAACCUUGCCAGUCUUUCUCACUAGUAAGCAGGGCUGAGACUGUGGGAUCUUCCUUCAUGGCUGCCAUCCACAGUUUCAGUUUUGGCAACAGAGGAUUGAGCAUCA
B4: chr10:41618152:41618153:+_ENSMUSG00000038332_ENSMUST00000041438|mus_mus|FALSE|FALSE (ssRNA)
RNA: GGGAGUUCUACAGUCCGACGAUCUUGCAUCUCAUCCACACUGUGAUUGCCAUUUGUAAUGUCACAGAUGCAGUAGUUACUAACAGAAGGCGGUCUGAAGGUGUGGCCACCAUCGCAAUGAAUCUCUGGACUAAUUCCACAGCCCAACAGAGGAUUGAGCAUCA
B5: chr9:110092072:110092073:+_ENSG00000119318_ENST00000416373|hu_mus|FALSE|FALSE (ssRNA)
RNA: GGGAGUUCUACAGUCCGACGAUCAACUGUAUGUAUCCCUGCCCUAUAUCCUAGCUCCCCACCCCCACCCCCACCAACCUACUACCGUAUACCAAAUAUUGUGGAUAUGAGCCCAAGUCACCCCAGACAAUCCAGUGAACAAGGCAACAGAGGAUUGAGCAUCA
B6: chr2:47387770:47387771:-_ENSG00000143933_ENST00000272298|hu_mus|hu_hu_hu_mus_True|8_18 (ssRNA)
RNA: GGGAGUUCUACAGUCCGACGAUCAAGGUUUAAGGACAAUGACAGUAAGAUAAGGGAAGAAAACAUGGAGGAAUGAAGUCCUAAUUACUAUACAUGCAUAUUUUUUGACAGUAGGGGAGAAACCUUUUACAGAUAAGAGUUACACAACAGAGGAUUGAGCAUCA
B7: chr1:244855233:244855234:+_ENSG00000121644_ENST00000302550|hu_mus|hu_hu_hu_mus_True|38_38 (ssRNA)
RNA: GGGAGUUCUACAGUCCGACGAUCCAUCAGAUGGUAGGCGUUGCCCUUAUACUCUUUCCCCAGUUCUUCUACAAUUUUCUCUAUAUCAUCUUCUAGAAAGUCCGUGCUUCCUAGAACAACAGCUUCUUUAAAUUUAAAUGUUUCCAACAGAGGAUUGAGCAUCA
B8: 30729433_30729653_658_CDS_ENSG00000101337_ENST00000398022|human|control|control (ssRNA)
RNA: GGGAGUUCUACAGUCCGACGAUCCACAUCUUUUUCCUUCUUCUUGUCAUCGCUGUCUCGGUUGGAGUAGAGCUCCAGCCGGGUGGCCACAGGCAGGUUGUCAGCAAUGAGGUGGACGUAGUAGUCUUCUGUGAUCCGCUCGGCCAACAGAGGAUUGAGCAUCA
B9: 86156745_86156865_1897_CDS_ENSMUSG00000020048_ENSMUST00000020238|mouse|control|control (ssRNA)
RNA: GGGAGUUCUACAGUCCGACGAUCACUCUCAUCAAACUUCACCCCUUCUUUGGCAACAUUCUGAAACCUCUUCCCAUCAAACUCGGGAAGAGCCUGAAUGCAGUAUUCAUCCACAGGCUCUGUGAGAUAAAUGACUUCAUAGCCCAACAGAGGAUUGAGCAUCA
B10: chr12:25362807:25362808:-_ENSG00000133703_ENST00000311936|hu_mus|FALSE|FALSE (ssRNA)
RNA: GGGAGUUCUACAGUCCGACGAUCCUUCUUCUUCUUCCCAUCUUUGCUCAUCUUUUCUUUAUGUUUUCGAAUUUCUCGGACUAAUGUAUAGAAGGCAUCGUCAACACCCUGUCUUGUCUUUGCUGAGGUCUCAAUGAACGGAAUCAACAGAGGAUUGAGCAUCA
B11: 46211499_46211619_697_CDS_ENSG00000189079_ENST00000334344|human|control|control (ssRNA)
RNA: GGGAGUUCUACAGUCCGACGAUCUUUUUCAAGUUGCAUGACGUGCUUGCUUUCAUUUGAUAGGAGAGUGCAUACGUUAAUAGCAAAGUCCACUUCAUUUGGGAGUCCAGAUAACAGUGAAAGCACCAAUUUAUUAUAAUCAUUCAACAGAGGAUUGAGCAUCA
B12: chr6:110421769:110421770:-_ENSG00000112290_ENST00000392587|hu_mus|FALSE|FALSE (ssRNA)
RNA: GGGAGUUCUACAGUCCGACGAUCGCUUUCUUACUCCAGCCAGUCUACUUCAUCGAACUCCGAGUCAUCUUCCGAGUCGCUAUACUCCACAGCAAUGCGGCGAGACAGGAUGGUGGCCACGUCGUUUUCAAUCCGCUCGUGUUUCAACAGAGGAUUGAGCAUCA
B13: chr15:50791314:50791315:+_ENSG00000138592_ENST00000307179|hu_mus|FALSE|FALSE (ssRNA)
RNA: GGGAGUUCUACAGUCCGACGAUCAGCGAUCCAUUAUCUUUGUAAGCAUUAGAUGUGAGGCUGCAAUUUGGAGACGUCAAUAAGCCGACAGCCUACUCCUCUCUAUGUGGCUACAUCAGUUAUGCGUGGUCCCAGGGAAGUAUACAACAGAGGAUUGAGCAUCA
B14: chrX:119387588:119387589:+_ENSG00000177485_ENST00000326624|hu_mus|FALSE|FALSE (ssRNA)
RNA: GGGAGUUCUACAGUCCGACGAUCUGAUAUGCUUUUAACCUGUGACAGUGGGACACCAAGCUCUGCUAUAAAUUUCACGCCUAGUAACUGCCCUGAUUUAAUUAACUCGUCAAGCAAAUCUGCUCUAACACGGACAACUUUGGACAACAGAGGAUUGAGCAUCA

These binders were tested against T1, UNK ZnF1-3 (assay: nsRBNS (natural sequence RNA bind-n-seq); RBNS binding buffer (assumed for nsRBNS): 25 mM Tris pH 7.5, 150 mM KCl, 3 mM MgCl2, 0.01% Triton X-100, 500 ug/ml BSA, 20 U/ml SUPERase-In, 4 C; UNK is unkempt and MSI1 is Musashi-1; names of the RNAs are library labels; protein concentration not given here; high values mean tight binding).

Row | Binder | binding signal [enrichment R]
1 | B1 | 0.927
2 | B2 | 1.78
3 | B3 | 0.581
4 | B4 | 0.845
5 | B5 | 1.93
6 | B6 | 1.83
7 | B7 | 1.23
8 | B8 | 0.697
9 | B9 | 1.05
10 | B10 | 0.537
11 | B11 | 1.08
12 | B12 | 0.691
13 | B13 | 1.03
14 | B14 | 1.1
